# Laboratory results as given in PubChem BioAssay (Tox21).
# “And” between values parts separate entries of the source, which are not always exact repeats. Equal entries are not always repeated. Some structures have more than one record in an assay (separate samples or runs), and their calls can disagree. The source made the active and inactive calls. Unless noted, calls come from the whole dose curve; as a rule, active = well fitted curve in the direction sought with a large enough effect in the repeat runs; inconclusive = weak or mixed curves; inactive = no such curve, though single readings can be large; an effect the other way counts as inactive or inconclusive.
# Assays:
# [1] = qHTS assay for small molecule agonists of the p53 signaling pathway (AID 651631; calls by dose curve; note: potency is the fitted concentration of half-maximal effect; nearly all actives have a fitted effect of over 15% in size); conditions: HCT-116 p53RE-bla reporter, beta-lactamase FRET ratio, 16 h; activation: at 73.3 µM (top of the series) unless noted
# Summary of the method: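 Quantitative high-throughput format: 4,000 p53RE-bla HCT-116 cells/well, 5 h pre-incubation, 16 h compound exposure at 37 °C, 2 h room-temperature substrate step, fluorescence intensity measured.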
# [2] = qHTS assay for small molecules that induce genotoxicity in human embryonic kidney cells expressing luciferase-tagged ATAD5 (AID 651632); note: potency is the fitted concentration of half-maximal effect; nearly all actives have a fitted effect of over 15% in size
# Summary of the method: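 HEK293T cells carrying luciferase-tagged ATAD5 were given compound or DMSO vehicle and incubated 16 hr at 37C, 5% CO2. Luciferase activity was read after 30 min at room temperature with Amplite; a rise signals genotoxic stress.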
# [3] = qHTS assay for small molecules that induce genotoxicity in human embryonic kidney cells expressing luciferase-tagged ATAD5 - cell viability (AID 651634; calls by dose curve; note: potency is the fitted concentration of half-maximal effect; nearly all actives have a fitted effect of over 25% in size)
# Summary of the method: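 HEK293T cells carrying luciferase-tagged ATAD5, 2,000 cells/well, exposed to compound for 15.5 hr at 37C. Viability read as live-cell protease activity by CellTiter-Fluor fluorescence after 30 min at 37C.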
# [4] = qHTS assay for small molecule disruptors of the mitochondrial membrane potential - cell viability (AID 720634; calls by dose curve; note: potency is the fitted concentration of half-maximal effect; nearly all actives have a fitted effect of over 20% in size)
# Summary of the method: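 HepG2 cells, 2,000 per well, attached overnight, then treated 1 hr at 37 C, 5% CO2. Viability read as ATP by CellTiter-Glo luminescence after 30 min at room temperature. Read in the same wells as the m-MPI membrane-potential dye assay.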
# [5] = qHTS assay to identify small molecule antagonists of the glucocorticoid receptor (GR) signaling pathway - cell viability counter screen (AID 720693); conditions: GR-bla HeLa viability, CellTiter-Glo luminescence, 18 h, with 5 nM dexamethasone present; viability change, negative = cytotoxic: at 58.5 µM (top of the series); note: potency is the fitted concentration of half-maximal effect; nearly all actives have a fitted effect of over 55% in size
# [6] = qHTS assay for identifying genotoxic compounds that show differential cytotoxicity against isogenic chicken DT40 cell lines with known DNA damage response pathways - Rev3 mutant cell line (AID 743014); conditions: chicken DT40 Rev3-/- viability, CellTiter-Glo, 40 h; activity, negative = cytotoxicity: at 68.4 µM (top of the series) unless noted; note: potency is the fitted concentration of half-maximal effect; nearly all actives have a fitted effect of over 55% in size
# [7] = molecular target: Androgen receptor (Homo sapiens) (UniProt P10275); assay: qHTS assay to identify small molecule antagonists of the androgen receptor (AR) signaling pathway (AID 743035; active = well fitted inhibition curve with a large enough effect in the signal ratio in the repeat runs, not every such curve was filed as active; inconclusive = weak or mixed curves, or effect the other way; inactive = no such curve, though single readings can be large or run the other way; the % refers to the signal ratio; note: % is set by controls: 0 for no effect and ±100 for the full control effect); conditions: HEK293 AR-UAS-bla, R1881-stimulated, beta-lactamase FRET, 16 h; activity change, negative = inhibition: at 58.5 µM (top of the series) unless noted
# UniProt P10275, sequence (P10275 whole entry, looked up): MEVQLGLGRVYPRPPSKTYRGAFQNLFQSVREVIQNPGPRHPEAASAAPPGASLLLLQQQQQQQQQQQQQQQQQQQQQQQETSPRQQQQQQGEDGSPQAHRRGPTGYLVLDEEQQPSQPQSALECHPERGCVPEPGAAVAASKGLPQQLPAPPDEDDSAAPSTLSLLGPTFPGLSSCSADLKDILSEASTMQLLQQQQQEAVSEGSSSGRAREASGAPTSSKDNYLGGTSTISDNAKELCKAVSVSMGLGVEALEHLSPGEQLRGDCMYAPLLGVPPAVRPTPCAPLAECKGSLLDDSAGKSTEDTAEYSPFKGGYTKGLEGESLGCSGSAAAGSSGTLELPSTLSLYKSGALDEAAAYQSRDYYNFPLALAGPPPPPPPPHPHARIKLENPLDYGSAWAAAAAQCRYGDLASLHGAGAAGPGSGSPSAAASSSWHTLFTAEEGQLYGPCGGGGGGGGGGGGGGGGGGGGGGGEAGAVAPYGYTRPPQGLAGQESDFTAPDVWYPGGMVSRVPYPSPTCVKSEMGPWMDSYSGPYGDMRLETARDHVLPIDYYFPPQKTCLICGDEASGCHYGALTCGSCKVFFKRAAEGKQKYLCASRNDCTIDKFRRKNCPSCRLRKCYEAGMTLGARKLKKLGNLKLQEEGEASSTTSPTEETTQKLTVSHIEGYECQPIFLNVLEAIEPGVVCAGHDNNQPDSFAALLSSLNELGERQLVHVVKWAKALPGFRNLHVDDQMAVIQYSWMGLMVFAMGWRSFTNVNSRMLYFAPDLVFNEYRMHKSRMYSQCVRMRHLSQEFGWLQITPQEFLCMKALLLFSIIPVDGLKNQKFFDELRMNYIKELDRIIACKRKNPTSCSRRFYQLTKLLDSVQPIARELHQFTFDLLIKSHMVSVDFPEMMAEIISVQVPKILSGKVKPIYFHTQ
# Summary of the method: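 HEK293 cells stably carrying UAS-beta-lactamase reporter, 2,000/well, given compounds plus R1881 agonist and incubated 16 h at 37C. LiveBLAzer B/G FRET substrate then added for 2 h at room temperature before fluorescence reading.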
# [8] = molecular target: Androgen receptor (Homo sapiens) (UniProt P10275); assay: qHTS assay to identify small molecule agonists of the androgen receptor (AR) signaling pathway (AID 743036; active = well fitted activation curve with a large enough effect in the signal ratio in the repeat runs, with a control signal flat, not every such curve was filed as active; inconclusive = weak or mixed curves, or effect the other way; inactive = no such curve, though single readings can be large or run the other way; the % refers to the signal ratio; note: % is set by controls: 0 for no effect and ±100 for the full control effect); conditions: HEK293 AR-UAS-bla GripTite, beta-lactamase FRET ratio, 16 h; activation: at 62.4 µM (top of the series) unless noted
# Summary of the method: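 Beta-lactamase under UAS control, stably integrated in HEK293 GripTite cells, reports receptor activation. After 16 h compound treatment, cells received FRET substrate for 2 h at room temperature before fluorescence reading.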
# [9] = qHTS assay to identify small molecule antagonists of the androgen receptor (AR) signaling pathway using the MDA cell line - cell viability counter screen (AID 743041; note: potency is the fitted concentration of half-maximal effect; nearly all actives have a fitted effect of over 45% in size); conditions: MDA-kb2 viability, CellTiter-Fluor, 16 h, cells co-treated with R1881 androgen agonist; viability change, negative = cytotoxic: at 70.3 µM (top of the series)
# Summary of the method: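 R1881-driven MDA-kb2 AR-luc cells, 3,000/well, were dosed with library compounds for 16 h; cell health came from CellTiter-Fluor fluorescence in the reporter wells.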
# [10] = qHTS assay to identify small molecule antagonists of the thyroid receptor (TR) signaling pathway - cell viability counter screen (AID 743064); conditions: GH3.TRE-Luc viability, CellTiter-Fluor, 24 h; activity change, negative = cytotoxic: at 70.3 µM (top of the series) unless noted; note: nearly all actives have a fitted effect of over 50% in size; note: potency is the fitted concentration of half-maximal effect
# Summary of the method: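 Compounds were tested on GH3.TRE-Luc cells in the presence of T3 at 1 nM final. Following 23.5 h at 37 °C, cell viability was quantified by CellTiter-Fluor.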
# [11] = qHTS assay to identify small molecule antagonists of the thyroid receptor (TR) signaling pathway (AID 743065); note: nearly all actives have a fitted effect of over 55% in size; note: potency is the fitted concentration of half-maximal effect
# Summary of the method: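 Antagonism measured as loss of luciferase signal in GH3 cells stably carrying a TRE-luciferase reporter, co-treated with compound and T3 (1 nM final) for 23.5 h at 37 C. Viability was read in the same well by CellTiter-Fluor.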
# [12] = system: thyroid hormone receptor (rat, GH3 cells); assay: qHTS assay to identify small molecule agonists of the thyroid receptor (TR) signaling pathway (AID 743066; calls by dose curve; note: % is set by controls: 0 for no effect and ±100 for the full control effect); conditions: GH3.TRE-Luc cells, TR agonist luciferase, 24 h; activation: at 83.9 µM (top of the series) unless noted
# [13] = qHTS assay to identify small molecule antagonists of the estrogen receptor alpha (ER-alpha) signaling pathway using the BG1 cell line - cell viability counter screen (AID 743081); conditions: BG1Luc4E2 viability, CellTiter-Fluor, 22 h; activity change, negative = cytotoxicity: at 70.3 µM (top of the series) unless noted;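 note: compound given together with 17beta-estradiol as the ER stimulus; potency is the fitted concentration of half-maximal effect; nearly all actives have a fitted effect of over 45% in size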
# [14] = molecular target: Aryl hydrocarbon receptor (Homo sapiens) (UniProt P35869); assay: qHTS assay to identify small molecule that activate the aryl hydrocarbon receptor (AhR) signaling pathway (AID 743085); note: potency is the fitted concentration of half-maximal effect; nearly all actives have a fitted effect of over 15% in size
# UniProt P35869, sequence (P35869 whole entry, looked up): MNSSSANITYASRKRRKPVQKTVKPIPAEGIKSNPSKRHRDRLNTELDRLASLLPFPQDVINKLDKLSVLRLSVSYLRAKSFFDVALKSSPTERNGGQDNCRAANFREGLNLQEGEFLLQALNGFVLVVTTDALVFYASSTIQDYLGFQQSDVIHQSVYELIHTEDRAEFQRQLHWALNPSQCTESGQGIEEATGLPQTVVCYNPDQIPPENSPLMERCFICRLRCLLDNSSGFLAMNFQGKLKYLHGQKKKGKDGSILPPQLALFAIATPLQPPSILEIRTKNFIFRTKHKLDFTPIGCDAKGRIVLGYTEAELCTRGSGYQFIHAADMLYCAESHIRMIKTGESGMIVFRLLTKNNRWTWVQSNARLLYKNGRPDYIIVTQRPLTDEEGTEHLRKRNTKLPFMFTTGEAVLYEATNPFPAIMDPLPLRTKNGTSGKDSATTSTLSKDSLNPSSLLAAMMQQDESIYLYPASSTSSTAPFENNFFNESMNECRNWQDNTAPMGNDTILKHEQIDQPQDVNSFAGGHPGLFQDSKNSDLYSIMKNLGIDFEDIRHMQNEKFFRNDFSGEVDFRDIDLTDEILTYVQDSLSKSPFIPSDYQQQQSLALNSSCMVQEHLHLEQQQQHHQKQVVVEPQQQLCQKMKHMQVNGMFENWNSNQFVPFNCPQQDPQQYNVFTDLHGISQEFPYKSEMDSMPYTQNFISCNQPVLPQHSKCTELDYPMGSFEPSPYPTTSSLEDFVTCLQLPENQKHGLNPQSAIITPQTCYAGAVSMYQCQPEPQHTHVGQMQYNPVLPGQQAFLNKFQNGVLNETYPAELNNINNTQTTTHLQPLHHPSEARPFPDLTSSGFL
# Summary of the method: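 24 h compound exposure, 37C, HepG2-derived HG2L7.5c1 cells with DRE-responsive luciferase. Readouts: fluorescence viability, then luminescence at room temperature after 30 min.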
# [15] = qHTS assay to identify small molecule that activate the aryl hydrocarbon receptor (AhR) signaling pathway - cell viability counter screen (AID 743086); note: nearly all actives have a fitted effect of over 45% in size; note: potency is the fitted concentration of half-maximal effect
# Summary of the method: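 Cytotoxicity counter screen: CellTiter-Fluor signal (30 min, 37 C) in 4000 HepG2 cells/well carrying the DRE-luciferase reporter, following 24 h compound exposure at 37 C.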
# [16] = molecular target: Peroxisome proliferator-activated receptor gamma (Homo sapiens) (UniProt P37231); assay: qHTS assay to identify small molecule agonists of the peroxisome proliferator-activated receptor gamma (PPARg) signaling pathway (AID 743094; active = well fitted activation curve with a large enough effect in the signal ratio in the repeat runs, not every such curve was filed as active; inconclusive = weak or mixed curves, or effect the other way; inactive = no such curve, though single readings can be large or run the other way; the % refers to the signal ratio; note: potency is the fitted concentration of half-maximal effect; for activation: % is set by controls: 0 for no effect and ±100 for the full control effect); conditions: HEK293H PPARg-UAS-bla, beta-lactamase FRET ratio, 17 h; activation: at 57 µM (top of the series) unless noted
# UniProt P37231, sequence (P37231 whole entry, looked up): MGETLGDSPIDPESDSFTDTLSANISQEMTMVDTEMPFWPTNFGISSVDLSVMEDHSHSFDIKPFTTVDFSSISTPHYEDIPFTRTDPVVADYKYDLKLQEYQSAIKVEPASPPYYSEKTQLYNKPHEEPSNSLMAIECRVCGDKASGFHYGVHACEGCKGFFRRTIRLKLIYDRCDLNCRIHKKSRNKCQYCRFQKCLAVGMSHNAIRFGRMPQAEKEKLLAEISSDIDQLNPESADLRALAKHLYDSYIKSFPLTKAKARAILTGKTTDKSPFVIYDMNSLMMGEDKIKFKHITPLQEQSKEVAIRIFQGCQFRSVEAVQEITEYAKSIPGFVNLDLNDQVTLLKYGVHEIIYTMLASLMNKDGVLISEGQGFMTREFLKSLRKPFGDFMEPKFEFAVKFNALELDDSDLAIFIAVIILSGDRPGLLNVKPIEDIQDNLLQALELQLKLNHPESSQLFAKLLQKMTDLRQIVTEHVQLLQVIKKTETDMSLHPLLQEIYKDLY
# Summary of the method: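 GeneBLAzer PPARg UAS-bla HEK293H cells were plated, rested 5 h, then exposed to compounds for 17 h at 37C. Beta-lactamase activity was read by LiveBLAzer B/G FRET substrate fluorescence after 1 h at room temperature.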
# [17] = molecular target: Nuclear receptor subfamily 1 group I member 2 (Rattus norvegicus) (UniProt Q9R1A7); assay: Rat pregnane X receptor (rPXR) activation by small molecules, qHTS assay (AID 1346983); conditions: rPXR luciferase reporter cells, One-Glo luminescence, 24 h; max activation: stronger effect = higher value; note: potency is the fitted concentration of half-maximal effect; nearly all actives have a fitted effect of over 20% in size
# UniProt Q9R1A7, sequence (Q9R1A7 whole entry, looked up): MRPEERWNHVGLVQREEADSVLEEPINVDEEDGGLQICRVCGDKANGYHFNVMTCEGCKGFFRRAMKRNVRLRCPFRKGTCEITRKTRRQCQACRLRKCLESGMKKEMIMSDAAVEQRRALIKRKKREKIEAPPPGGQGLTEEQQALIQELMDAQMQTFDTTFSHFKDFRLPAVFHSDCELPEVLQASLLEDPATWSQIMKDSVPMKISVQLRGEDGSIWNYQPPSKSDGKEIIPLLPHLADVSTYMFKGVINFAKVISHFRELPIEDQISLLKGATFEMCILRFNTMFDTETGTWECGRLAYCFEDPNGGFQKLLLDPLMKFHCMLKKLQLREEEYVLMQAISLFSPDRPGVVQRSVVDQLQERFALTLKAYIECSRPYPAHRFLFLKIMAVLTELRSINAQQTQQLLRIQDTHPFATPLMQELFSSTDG
# Summary of the method: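 Luminescent readout (One-Glo luciferase, 30 min room temperature) followed 24 hr compound treatment at 37 C of rPXR cells plated 2,000 per well and preincubated 5hr; qHTS format with compounds delivered in DMSO.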
# [18] = qHTS assay for small molecule disruptors of the mitochondrial membrane potential (AID 720635); conditions: HepG2 mitochondrial membrane potential, Mito-MPS dye ratio; ratio activity, negative = MMP loss: at 83.2 µM (top of the series) unless noted; note: potency is the fitted concentration of half-maximal effect
# Summary of the method: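 Mitochondrial membrane potential tracked with Mito-MPS dye, red aggregates (ex 540/em 590 nm) against green monomers (ex 490/em 535 nm). Compound treatment 1 hr at 37C, dye 30 min in HepG2.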
# [19] = qHTS assay to identify small molecule antagonists of the androgen receptor (AR) signaling pathway - cell viability counter screen (AID 743033; note: nearly all actives have a fitted effect of over 45% in size; note: potency is the fitted concentration of half-maximal effect); conditions: AR-bla HEK293 viability, CellTiter-Glo luminescence, 16 h; activity change, negative = cytotoxicity: at 58.5 µM (top of the series) unless noted
# [20] = molecular target: Estrogen receptor (Homo sapiens) (UniProt P03372); assay: qHTS assay to identify small molecule agonists of the estrogen receptor alpha (ER-alpha) signaling pathway using the BG1 cell line (AID 743079); conditions: BG1Luc4E2 cells, ERE-luciferase agonist, 22 h; activation: at 70.3 µM (top of the series) unless noted; note: potency is the fitted concentration of half-maximal effect; nearly all actives have a fitted effect of over 20% in size
# UniProt P03372, sequence (P03372 whole entry, looked up): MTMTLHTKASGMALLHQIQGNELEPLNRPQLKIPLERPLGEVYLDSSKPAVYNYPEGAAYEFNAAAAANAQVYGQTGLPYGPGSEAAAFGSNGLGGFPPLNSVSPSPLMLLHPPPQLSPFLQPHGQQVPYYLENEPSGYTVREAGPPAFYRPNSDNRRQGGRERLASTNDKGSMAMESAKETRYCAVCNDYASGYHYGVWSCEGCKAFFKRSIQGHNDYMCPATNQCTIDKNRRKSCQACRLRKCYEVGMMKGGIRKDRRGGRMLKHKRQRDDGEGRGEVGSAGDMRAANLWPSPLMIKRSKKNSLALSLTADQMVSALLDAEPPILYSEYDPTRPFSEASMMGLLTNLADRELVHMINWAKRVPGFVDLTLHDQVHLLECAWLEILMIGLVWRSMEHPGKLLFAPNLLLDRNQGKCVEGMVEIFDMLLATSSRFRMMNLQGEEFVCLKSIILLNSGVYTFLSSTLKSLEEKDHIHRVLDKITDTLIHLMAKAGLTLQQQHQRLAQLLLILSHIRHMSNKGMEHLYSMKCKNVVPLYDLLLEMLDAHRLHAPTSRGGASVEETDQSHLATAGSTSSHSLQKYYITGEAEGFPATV
# [21] = qHTS assay to identify small molecule antagonists of the estrogen receptor alpha (ER-alpha) signaling pathway using the BG1 cell line (AID 743080; calls by dose curve;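 note: BG1 cells stimulated with 17beta-estradiol alongside compound; potency is the fitted concentration of half-maximal effect; nearly all actives have a fitted effect of over 25% in size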); conditions: BG1Luc4E2 ERE-luciferase antagonist mode, luminescence; activity change, negative = inhibition: at 70.3 µM (top of the series) unless noted
# Summary of the method: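 Readout is ONE-Glo luminescence, taken 30 min at room temperature after reagent addition, preceded by a CellTiter-Fluor viability read; BG1-Luc-4E2 cells had received compound and 17beta-estradiol for 21.5 h at 37 C.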
# [22] = qHTS assay for small molecule agonists of the p53 signaling pathway - cell viability (AID 651633; calls by dose curve; note: potency is the fitted concentration of half-maximal effect; nearly all actives have a fitted effect of over 30% in size)
# Summary of the method: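 Viability counter-read: CellTiter-Glo luminescence (30 min, room temperature) in the same p53RE-bla plates. These plates had been exposed to compounds for 16 h at 37 C.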
# [23] = molecular target: Glucocorticoid receptor (Homo sapiens) (UniProt P04150); assay: qHTS assay to identify small molecule agonists of the glucocorticoid receptor (GR) signaling pathway (AID 720691; active = well fitted activation curve with a large enough effect in the signal ratio in the repeat runs, not every such curve was filed as active; inconclusive = weak or mixed curves, or effect the other way; inactive = no such curve, though single readings can be large or run the other way; the % refers to the signal ratio; note: potency is the fitted concentration of half-maximal effect); conditions: GR-bla HeLa, beta-lactamase reporter ratio, 18 h; activation: at 62.4 µM (top of the series) unless noted
# UniProt P04150, sequence (P04150 whole entry, looked up): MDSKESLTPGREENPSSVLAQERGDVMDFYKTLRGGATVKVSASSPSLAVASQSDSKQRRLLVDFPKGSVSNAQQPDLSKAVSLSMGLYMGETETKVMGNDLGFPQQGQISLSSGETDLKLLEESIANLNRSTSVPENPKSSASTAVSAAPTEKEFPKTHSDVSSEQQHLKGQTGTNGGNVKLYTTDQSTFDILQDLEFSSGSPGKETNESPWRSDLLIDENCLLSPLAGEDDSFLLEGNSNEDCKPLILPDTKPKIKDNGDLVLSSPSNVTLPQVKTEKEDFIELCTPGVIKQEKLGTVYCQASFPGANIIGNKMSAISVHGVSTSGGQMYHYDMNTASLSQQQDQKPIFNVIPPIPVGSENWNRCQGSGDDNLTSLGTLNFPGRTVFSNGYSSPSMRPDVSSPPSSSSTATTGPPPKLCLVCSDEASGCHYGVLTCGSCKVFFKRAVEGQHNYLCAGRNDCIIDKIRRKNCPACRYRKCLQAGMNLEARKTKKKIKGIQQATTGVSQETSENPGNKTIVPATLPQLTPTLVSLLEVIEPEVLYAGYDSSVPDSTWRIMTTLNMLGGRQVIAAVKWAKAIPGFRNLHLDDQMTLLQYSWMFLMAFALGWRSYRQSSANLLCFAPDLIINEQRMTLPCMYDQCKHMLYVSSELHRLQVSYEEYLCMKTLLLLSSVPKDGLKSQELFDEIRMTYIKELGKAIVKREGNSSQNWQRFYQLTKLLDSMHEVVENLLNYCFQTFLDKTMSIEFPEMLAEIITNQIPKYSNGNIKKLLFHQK
# Summary of the method: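 GR-bla HeLa cells carrying a GRE-driven beta-lactamase reporter, exposed to compounds for 18 h at 37 C. Reporter activation read as fluorescence after 2 h with LiveBLAzer B/G FRET substrate at room temperature.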
# [24] = molecular target: Glucocorticoid receptor (Homo sapiens) (UniProt P04150); assay: qHTS assay to identify small molecule antagonists of the glucocorticoid receptor (GR) signaling pathway (AID 720692; active = well fitted inhibition curve with a large enough effect in the signal ratio in the repeat runs, not every such curve was filed as active; inconclusive = weak or mixed curves, or effect the other way; inactive = no such curve, though single readings can be large or run the other way; the % refers to the signal ratio; note: potency is the fitted concentration of half-maximal effect); conditions: GR-bla HeLa, beta-lactamase FRET ratio, dexamethasone-stimulated, 18 h; activity change, negative = inhibition: at 58.5 µM (top of the series) unless noted
# Summary of the method: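 GR-bla HeLa cells carrying a GRE-driven beta-lactamase reporter received compound after 4 h plating, then dexamethasone (5 nM final). After 18 h at 37C, the FRET substrate was loaded for 2 h at room temperature and fluorescence read.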
# [25] = molecular target: Estrogen receptor (Homo sapiens) (UniProt P03372); assay: qHTS assay to identify small molecule antagonists of the estrogen receptor alpha (ER-alpha) signaling pathway (AID 743069; active = well fitted curve in the direction sought with a large enough effect in the signal ratio in the repeat runs, not every such curve was filed as active; inconclusive = weak or mixed curves, or effect the other way; inactive = no such curve, though single readings can be large or run the other way; the % refers to the signal ratio; note: potency is the fitted concentration of half-maximal effect); conditions: HEK293 ER-alpha-UAS-bla, beta-lactamase ratio, antagonist mode; activity, negative = inhibition: at 69.4 µM (top of the series) unless noted
# Summary of the method: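 Compound effects are measured against 17beta-estradiol stimulation in HEK293 cells with a UAS-controlled beta-lactamase reporter for ER-alpha. Exposure lasts 18 hr at 37C; LiveBLAzer B/G FRET substrate follows for 2 hr at room temperature.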
# Aromatase (Homo sapiens) = Aromatase (Homo sapiens) (UniProt P11511); assay: qHTS assay to identify aromatase inhibitors (AID 743083); note: potency is the fitted concentration of half-maximal effect; nearly all actives have a fitted effect of over 55% in size
# UniProt P11511, sequence (P11511 whole entry, looked up): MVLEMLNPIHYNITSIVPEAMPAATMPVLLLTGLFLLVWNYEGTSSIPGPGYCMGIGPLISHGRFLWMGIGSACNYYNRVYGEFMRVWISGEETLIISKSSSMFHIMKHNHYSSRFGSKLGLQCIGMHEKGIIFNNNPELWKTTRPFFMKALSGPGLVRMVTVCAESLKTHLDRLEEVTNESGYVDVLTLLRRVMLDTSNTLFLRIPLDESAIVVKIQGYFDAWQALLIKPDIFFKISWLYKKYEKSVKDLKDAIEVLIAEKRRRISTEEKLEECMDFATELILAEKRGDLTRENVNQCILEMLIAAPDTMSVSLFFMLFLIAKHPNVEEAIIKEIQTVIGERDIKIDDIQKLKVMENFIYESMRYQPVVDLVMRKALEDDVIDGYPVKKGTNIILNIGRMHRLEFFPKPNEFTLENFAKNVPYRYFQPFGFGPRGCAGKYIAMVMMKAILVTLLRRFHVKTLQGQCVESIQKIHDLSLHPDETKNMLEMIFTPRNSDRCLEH
# [26] = qHTS assay to identify aromatase inhibitors - cell viability counter screen (AID 743084); conditions: MCF-7 aro ERE viability, CellTiter-Fluor, 24 h; activity change, negative = cytotoxicity: at 70.3 µM (top of the series) unless noted
# [27] = molecular target: Nuclear receptor subfamily 1 group I member 2 (Homo sapiens) (UniProt O75469); assay: CYP3A4 induction through human pregnane X receptor (PXR) by small molecules, qHTS assay (AID 1346984); conditions: DPX-2 HepG2 PXR, CYP3A4-luciferin luminescence, 24 h; activation: at 46.1 µM (top of the series) unless noted; note: potency is the fitted concentration of half-maximal effect; nearly all actives have a fitted effect of over 40% in size
# Summary of the method: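 DPX-2 HepG2 cells carrying a PXR response element and CYP3A4-promoter luciferase construct, treated with compounds 24 hr at 37C. Then P450-Glo CYP3A4 Luciferin-IPA substrate (3uM final) for 3 hr at 37C, One-Glo added, luminescence read.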
# Tags give direction and shape of the fitted curve or compound fluorescence and quenching.
structure (smiles),measurement,setting,value
CCOc1ccc(N=Nc2ccc(N)cc2N)cc1,Potency,[1],"inconclusive: 9.44 µM [cytotoxic, partial curve, poor fit]"
same,Potency,[2],active: 168 nM
same,Potency,[3],active: 2.37 µM
same,Potency,[4],active: 11.9 µM
same,Potency,[5],"inconclusive: 21.3 µM [cytotoxic, partial curve]"
same,Potency,[6],"inconclusive: 6.68 µM [cytotoxic, full curve]"
same,"activity change, negative = inhibition",[7],inconclusive: 7.93%
same,activation,[8],inconclusive: -21.5%
same,Potency,[9],active: 15 µM
same,Potency,[10],"inconclusive: 26.6 µM [cytotoxic, single point]"
same,Potency,[11],active: 10.6 µM
same,Potency,[12],inactive
same,Potency,[13],"inconclusive: 23.7 µM [cytotoxic, partial curve]"
same,Potency,[14],active: 0.944 µM
same,Potency,[15],"inconclusive: 23.7 µM [falling, partial curve]"
same,Potency,[16],inactive
same,Potency,[17],active: 3.16 µM
C(=C\c1ccncc1)/c1ccccc1,Potency,[2],"inconclusive: 16.8 µM [activator, partial curve, poor fit] and active: 23.7 µM"
same,Potency,[18],active: 3.76 µM and active: 10.6 µM
same,Potency,[6],active: 26.6 µM
same,Potency,[19],inactive
same,"activity change, negative = cytotoxic",[10],inconclusive: 35.5%
same,Potency,[11],inactive
same,Potency,[20],"inconclusive: 33.5 µM [activator, partial curve, poor fit] and active: 13.3 µM"
same,Potency,[21],"inconclusive: 13.3 µM [rising, full curve] and inconclusive: 5.96 µM [rising, full curve]"
same,Potency,[13],"inconclusive: 33.5 µM [cytotoxic, single point]"
same,Potency,[17],"inconclusive: 25.1 µM [activator, partial curve, poor fit]"
COc1cc([C@@H]2c3cc4c(cc3C(O[C@@H]3O[C@@H]5COC(c6cccs6)O[C@H]5[C@H](O)[C@H]3O)C3COC(=O)[C@@H]32)OCO4)cc(OC)c1O (stereo partly drawn),Potency,[1],active: 0.376 µM
same,Potency,[22],"inconclusive: 1.06 µM [cytotoxic, partial curve, poor fit]"
same,Potency,[18],"inconclusive: 6.68 µM [activator, full curve]"
same,Potency,[23],active: 3.38 µM
same,Potency,[24],"inconclusive: 8.49 µM [activator, full curve]"
same,Potency,[5],"inconclusive: 1.51 µM [rising, partial curve, poor fit]"
same,Potency,[19],active: 0.301 µM
same,Potency,[25],active: 6.74 µM [inconclusive]
same,Potency,[20],"inconclusive: 7.5 µM [inhibitor, partial curve]"
same,Potency,[21],"inconclusive: 2.98 µM [falling, full curve]"
same,Potency,[13],"inconclusive: 0.944 µM [cytotoxic, partial curve, poor fit]"
same,Potency,Aromatase (Homo sapiens),"inconclusive: 9.44 µM [inhibitor, full curve]"
same,Potency,[26],"inconclusive: 5.96 µM [cytotoxic, full curve]"
same,Potency,[15],inactive
same,Potency,[16],"inconclusive: 26.8 µM [rising, partial curve, poor fit]"
same,Potency,[27],"inconclusive: 0.158 µM [activator, full curve, poor fit]"
